# Source: article PMC7819943, “Rice protein-binding microarrays: a tool to detect cis-acting elements near promoter regions in rice”
# Some of the results follow.
# Target: T1, OsWOX13 (Oryza sativa, UniProt Q5QMM3 1-267)
# T1 sequence: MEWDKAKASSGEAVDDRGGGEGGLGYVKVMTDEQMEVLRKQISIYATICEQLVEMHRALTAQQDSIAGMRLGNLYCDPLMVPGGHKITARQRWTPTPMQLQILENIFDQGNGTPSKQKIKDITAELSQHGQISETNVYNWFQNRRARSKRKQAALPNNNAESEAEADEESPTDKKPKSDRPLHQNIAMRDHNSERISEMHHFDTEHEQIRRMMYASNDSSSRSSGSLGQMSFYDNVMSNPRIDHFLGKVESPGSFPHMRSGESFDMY
# Test: protein-binding microarray (RPBM); PBS, 2% BSA, 51.3 ng/ul salmon testes DNA, 50 uM zinc acetate, 200 nM TF, 25 C, 1 h; high values mean tight binding
# Conditions: protein: recombinant; tags: N-terminal polyhistidine and DsRed monomer fusion (pET32a); label: CyDye5-dUTP incorporated in the synthesized complementary strand; 3' TTTTT single-stranded linker to array surface; dsDNA, one strand shown
# In short: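 Binding signal is reported as fluorescence intensity per feature (arbitrary units) from an Axon 4000B scanner. Incubation used 200 nM of each Ni–NTA-purified, N-terminally polyhistidine- and DsRed-fused transcription factor from E. coli BL21-CodonPlus on a double-stranded custom Agilent array for 1 h at 25 °C, with 50 µM zinc acetate in the buffer, followed by washing.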
row,Sequence,binding signal
1,CATATAATTTCCTGTCTTAAGTTACAGAATGTGGATCAGTCGGAGTCACCTAGTGCAG,16200 fluorescence intensity (a.u.)
2,TAGTGTAATTTGAGTGACCCCAGTAATATTTTCCTATAGCCGGAGTCACCTAGTGCAG,4310 fluorescence intensity (a.u.)
3,GTCCCGATTGTCTTGTAAATTATGCTACTTGGCCATGAAACGGAGTCACCTAGTGCAG,8100 fluorescence intensity (a.u.)
4,GTTGATATAACATGTAAGTGTACTTTTAGTAGATGGGTTGCGGAGTCACCTAGTGCAG,3250 fluorescence intensity (a.u.)
5,ACTATATAATTAAAATAGATTTCACCCGTTGCAACGCACGCGGAGTCACCTAGTGCAG,13300 fluorescence intensity (a.u.)
6,TCGACCGATTGATCGATTGCTCACTGCCATATACATGATACGGAGTCACCTAGTGCAG,9930 fluorescence intensity (a.u.)
7,CAATGTTTTATCCTCAATCACACTTATAGTCTACCCTTACCGGAGTCACCTAGTGCAG,3960 fluorescence intensity (a.u.)
8,AACATGTATGATCAAATTAGATTTATGATTGACTACAATGCGGAGTCACCTAGTGCAG,38500 fluorescence intensity (a.u.)
9,TGAATTAATTTTCATCAATTCCCACTTTCCCAGTACAGTGCGGAGTCACCTAGTGCAG,29500 fluorescence intensity (a.u.)
10,TTGAATGACTACGAATTTGTTTAAATATTTGCATTCCATCCGGAGTCACCTAGTGCAG,7180 fluorescence intensity (a.u.)
11,GCAAATCAATAAACCTGACTGCATGAGAAACAGAGTTTGTCGGAGTCACCTAGTGCAG,5950 fluorescence intensity (a.u.)
12,AACTGACACGTGATGACTTAGCTGGAAGCGGCACGGACGGCGGAGTCACCTAGTGCAG,3320 fluorescence intensity (a.u.)
13,ATTAATTATTGGCGACGTACGGACAGGACCAAGAAATCTCCGGAGTCACCTAGTGCAG,20000 fluorescence intensity (a.u.)
14,ACCGAAATTTTGTTCTGTTGTTACTATTGGTAGTTAGTTTCGGAGTCACCTAGTGCAG,4190 fluorescence intensity (a.u.)
15,TCCATAAATTTGTGGGAGCTAGGAATATCCAACTTCAAATCGGAGTCACCTAGTGCAG,4240 fluorescence intensity (a.u.)
16,AGTGACACGGTTCTAATTTTGTGAAATTTCAGTGGCAAGGCGGAGTCACCTAGTGCAG,3680 fluorescence intensity (a.u.)
17,AAATTAGATTTGACTATGGCTGTGTTTAGTTCACACCAAACGGAGTCACCTAGTGCAG,7300 fluorescence intensity (a.u.)
18,TTACTTTTGCCTTTAATTAATTCATAGCTTTTATGTGCATCGGAGTCACCTAGTGCAG,4510 fluorescence intensity (a.u.)
19,AGTTGAAATTTTCAAATGTTGATTTTACTTGAAATAAAGGCGGAGTCACCTAGTGCAG,4760 fluorescence intensity (a.u.)
20,CCGCCATCAAACAATCAAGACTCAAGAGGCTTCCAGCTGGCGGAGTCACCTAGTGCAG,5620 fluorescence intensity (a.u.)
21,TAAATTTAAACGGTAAATTAAGGAGAGGGAGGTCATTCTTCGGAGTCACCTAGTGCAG,6560 fluorescence intensity (a.u.)

row,Sequence,binding signal
1,TTTGACATTAACGGAAGTCAATCCAATAACAAATGGGATACGGAGTCACCTAGTGCAG,7320 fluorescence intensity (a.u.)
2,GCTTGACTTCTTCATTCCTCAATCTCCTAACAACCATCACCGGAGTCACCTAGTGCAG,4180 fluorescence intensity (a.u.)
3,GTCCAATCCACAATAATTTATACACGCGTATATACTTCACCGGAGTCACCTAGTGCAG,5720 fluorescence intensity (a.u.)
4,TTTCAATTAAACTTTCAATTTTAGCGTGAACTAAACACACCGGAGTCACCTAGTGCAG,17300 fluorescence intensity (a.u.)
5,TCACTGTCAATTAGACTTTCAGAAGACGAGTAACGGTCAACGGAGTCACCTAGTGCAG,24900 fluorescence intensity (a.u.)
6,CAATCAATTGGTTGATTTTAGCACACCACAGTACTATTCACGGAGTCACCTAGTGCAG,6680 fluorescence intensity (a.u.)
7,AGGCATAATTGAGGCCACCCGTTGCAGTGAAAGGTTTGGTCGGAGTCACCTAGTGCAG,22900 fluorescence intensity (a.u.)
8,ATTAAATTTGAGATGAAATCTGGAGAAGCTTTGAATAACTCGGAGTCACCTAGTGCAG,5720 fluorescence intensity (a.u.)
9,CACTTGAAATTACTGATATTCAACTGTTCACATCTTCCAGCGGAGTCACCTAGTGCAG,3190 fluorescence intensity (a.u.)
10,CTCAACTAATTACAACCTTCTTCAATTTAATTTCATCTTCCGGAGTCACCTAGTGCAG,20500 fluorescence intensity (a.u.)
11,ACTGGTATCGATTAACAGGTTAATTTGGAGCGTCACGGGCCGGAGTCACCTAGTGCAG,7140 ± 617 fluorescence intensity (a.u.)
12,ACTATAATGACACAATTTTCTAGCTAACTTTAAAACTGTGCGGAGTCACCTAGTGCAG,6790 fluorescence intensity (a.u.)
13,TGTTAAGTTAAACGTGATTTGTTTGTATGGACCTAATTTACGGAGTCACCTAGTGCAG,4580 fluorescence intensity (a.u.)
14,TGTCATACTGATTTGGATGTTATTTGCAGAATCTACGCAGCGGAGTCACCTAGTGCAG,9470 fluorescence intensity (a.u.)
15,GGCTTGATGGATGGTCATCTTTCAATGCCACTAGTGAAGACGGAGTCACCTAGTGCAG,20700 fluorescence intensity (a.u.)
16,TAGTAAATTGCAGTTTGAAACCATAAATACAATGAAGTATCGGAGTCACCTAGTGCAG,7120 fluorescence intensity (a.u.)
17,AAAATGGATTTAATAGAAAGAAATGTTCACACATATCACGCGGAGTCACCTAGTGCAG,5480 fluorescence intensity (a.u.)
18,CTTAATTAATATAATGTCACATAAGCTAAAATTCCTACATCGGAGTCACCTAGTGCAG,32900 fluorescence intensity (a.u.)
19,CCACTGCTAGACTGCTAATTAACCAGTCCGCTCCAAGCGTCGGAGTCACCTAGTGCAG,17400 fluorescence intensity (a.u.)
20,TAGATAGATAGATAGATAGATAGATAGATAGATAGATACCCGGAGTCACCTAGTGCAG,33700 fluorescence intensity (a.u.)
21,GTCGCCTCCTGATTGGTTGTCCCCTCTTCCTTTCACGCGACGGAGTCACCTAGTGCAG,25800 fluorescence intensity (a.u.)

row,Sequence,binding signal
1,CTTATAGATGTTTGGATTGATGTCAAAATTTAACAAAGTTCGGAGTCACCTAGTGCAG,5120 fluorescence intensity (a.u.)
2,CCGGTGATAGCCTTATCTTGATTTTGTGTTGGTGCTATCGCGGAGTCACCTAGTGCAG,6680 fluorescence intensity (a.u.)
3,TATGATTGTGAGCACATGTATTCTAGTTAGAGGTGAATTTCGGAGTCACCTAGTGCAG,14000 fluorescence intensity (a.u.)
4,GGGGATTATTTATACATTTGTCGATAAATTTCCTGCTCCCCGGAGTCACCTAGTGCAG,8640 fluorescence intensity (a.u.)
5,ACCACGTAAATCTAAATCATGCTTTACCTATAAATGCGAGCGGAGTCACCTAGTGCAG,3410 fluorescence intensity (a.u.)
6,ATCAGTCAATACTAACAATCAACCGTGACTAGTGACTCCACGGAGTCACCTAGTGCAG,7570 fluorescence intensity (a.u.)
7,GTGTGATTATAACTACACATCAGCTTGCTGGCCAGCCTCTCGGAGTCACCTAGTGCAG,18300 fluorescence intensity (a.u.)
8,TCAAGCTAGTGATCAATTTATTTTCATGAATAATAATGGCCGGAGTCACCTAGTGCAG,5030 fluorescence intensity (a.u.)
9,ACAAATTTGAACTTAGAGTGATTTTACTTTAACCAAAGTCCGGAGTCACCTAGTGCAG,16300 fluorescence intensity (a.u.)
10,CGCTTAATGACTTCACTTTGTCCTCGGATGATTTGCGTCCCGGAGTCACCTAGTGCAG,11700 fluorescence intensity (a.u.)
11,GTCCTTTCAGCAGAGATGATTGTCTGAAATCAAAATATTTCGGAGTCACCTAGTGCAG,4010 fluorescence intensity (a.u.)
12,TACTTTTGATTATCTAGAACTAATCACTCATACACGCGTCCGGAGTCACCTAGTGCAG,18600 fluorescence intensity (a.u.)
13,TCCTTAATTTATTCGAATACCATTTGAATAAATATTTGATCGGAGTCACCTAGTGCAG,26300 fluorescence intensity (a.u.)
14,CTAAATTACTTATTTGTAGATGAAAGAGGTGGTACTTTATCGGAGTCACCTAGTGCAG,14500 fluorescence intensity (a.u.)
15,AGCCCAGGACAAATTAATTATGTGGTATGCCTGCATGATCCGGAGTCACCTAGTGCAG,8080 fluorescence intensity (a.u.)
16,ACACTAAATGAATTCTAAAATACGACAAAGATCAAACAAGCGGAGTCACCTAGTGCAG,3600 fluorescence intensity (a.u.)
17,TGTATCATTGATTTAGAGTATTTTATTTTAATTTATATGTCGGAGTCACCTAGTGCAG,8960 fluorescence intensity (a.u.)
18,CTTGGATAGATTCTTAATTAGCATACAGAAGCAGCAGTAGCGGAGTCACCTAGTGCAG,14000 fluorescence intensity (a.u.)
19,CAAATTTACCCTAGATTAGTTGCTTCATTGTATTGTCTATCGGAGTCACCTAGTGCAG,6870 fluorescence intensity (a.u.)
20,GTGGCTCTAAATTAAGTTTGTCTAGACTTATCCTGGTGTACGGAGTCACCTAGTGCAG,4780 fluorescence intensity (a.u.)
21,GGCTATTAGATTGGTTATAAATGAATTGGAGCCAATAGTGCGGAGTCACCTAGTGCAG,39100 fluorescence intensity (a.u.)

row,Sequence,binding signal
1,CGCTTGATCTGGGGTGGGGTCGCGAGTGGTGGAGGAGGTGCGGAGTCACCTAGTGCAG,3600 fluorescence intensity (a.u.)
2,TATTTAATTAACTATGTACTATTTTATCGTTCAATTTTACCGGAGTCACCTAGTGCAG,16500 fluorescence intensity (a.u.)
3,CCTAATGAATGGAAGTTGGTCTTGGTCTTCTTCAGGGCAACGGAGTCACCTAGTGCAG,5070 fluorescence intensity (a.u.)
4,CTGATTTCTGTGACATATGATAAATTGAACGTAGATGGATCGGAGTCACCTAGTGCAG,31600 fluorescence intensity (a.u.)
5,ATAAATTTGAGTAAATTTAACATAAGTTTGATTAGGAAAACGGAGTCACCTAGTGCAG,9310 fluorescence intensity (a.u.)
6,AAAATTTTAATGTGATGGAAAAGTCGGAAGTTCGAAGAAACGGAGTCACCTAGTGCAG,10700 fluorescence intensity (a.u.)
7,ATGAATCAGTTTAAACAGTTAAGGGAGCATCTGTATCTAGCGGAGTCACCTAGTGCAG,3260 fluorescence intensity (a.u.)
8,TAAAGTTCTACTAGTAATTGATTCAATCGCCCCGTTAGTGCGGAGTCACCTAGTGCAG,7900 fluorescence intensity (a.u.)
9,GTGACATTTACGTTTAACTATTTATTACTCCCTCGGTCACCGGAGTCACCTAGTGCAG,3990 fluorescence intensity (a.u.)
10,GCTGAATTGTTCAAAATTGCCAGTGCTTGCCATCATAGGACGGAGTCACCTAGTGCAG,4000 fluorescence intensity (a.u.)
11,ACGTCTAATTACTGCTTCAGGACTGGCTTATCATCGAAGTCGGAGTCACCTAGTGCAG,17000 fluorescence intensity (a.u.)
12,CGAATTTATTAAGTCTAATTAATTCGTCATTAGTAAATATCGGAGTCACCTAGTGCAG,5070 fluorescence intensity (a.u.)
13,CACCTGATTTAAACGAGTGAAACATTTTCGATCTGAAACACGGAGTCACCTAGTGCAG,13200 fluorescence intensity (a.u.)
14,TATAGATTTAAATCAGTGTATCCCAAAGCTACAAATTTAGCGGAGTCACCTAGTGCAG,12700 fluorescence intensity (a.u.)
15,ATCCACTAATTAGGCAATTTCCCGCTGTCAAGTATGCTACCGGAGTCACCTAGTGCAG,41600 fluorescence intensity (a.u.)
16,TATTATTGCTGGCAACATTAATTGGCTTGTCTTTGACAAGCGGAGTCACCTAGTGCAG,3250 fluorescence intensity (a.u.)
17,GGCCTCTAGGATGATTGGCAAGGTGGCGGTCTAGCTTGACCGGAGTCACCTAGTGCAG,14700 fluorescence intensity (a.u.)
18,CTAAATTAGTAGATAAGTTTCTCTAACTAAAACTGGTCTACGGAGTCACCTAGTGCAG,25200 fluorescence intensity (a.u.)
19,CAAATTATCTGTCATGCAAGTTGAAGAAGCAATCATAGATCGGAGTCACCTAGTGCAG,5070 fluorescence intensity (a.u.)
20,GTGATTGATATCGATTCTGATTGATGCCTTTGCCTGGTACCGGAGTCACCTAGTGCAG,57000 fluorescence intensity (a.u.)
21,CCTAGTTTGATTGTTGTCAAGACCAGATATGAAGACTCCCCGGAGTCACCTAGTGCAG,23800 fluorescence intensity (a.u.)
